Test results published in paper PMC4336329 (PLoS ONE, 2015).
Among all 310,000 compounds or so, about 2,200 (0.71%) showed an effect of 50% or more. The effect is printed as a negative number. Some of the results follow.

Molecular target: human ether-à-go-go-related gene (hERG) potassium channel (human, UniProt Q12809)
Assay: primary screen, population patch clamp on CHO cells stably expressing hERG

Sequence of human ether-à-go-go-related gene (hERG) potassium channel (Q12809 whole entry, looked up): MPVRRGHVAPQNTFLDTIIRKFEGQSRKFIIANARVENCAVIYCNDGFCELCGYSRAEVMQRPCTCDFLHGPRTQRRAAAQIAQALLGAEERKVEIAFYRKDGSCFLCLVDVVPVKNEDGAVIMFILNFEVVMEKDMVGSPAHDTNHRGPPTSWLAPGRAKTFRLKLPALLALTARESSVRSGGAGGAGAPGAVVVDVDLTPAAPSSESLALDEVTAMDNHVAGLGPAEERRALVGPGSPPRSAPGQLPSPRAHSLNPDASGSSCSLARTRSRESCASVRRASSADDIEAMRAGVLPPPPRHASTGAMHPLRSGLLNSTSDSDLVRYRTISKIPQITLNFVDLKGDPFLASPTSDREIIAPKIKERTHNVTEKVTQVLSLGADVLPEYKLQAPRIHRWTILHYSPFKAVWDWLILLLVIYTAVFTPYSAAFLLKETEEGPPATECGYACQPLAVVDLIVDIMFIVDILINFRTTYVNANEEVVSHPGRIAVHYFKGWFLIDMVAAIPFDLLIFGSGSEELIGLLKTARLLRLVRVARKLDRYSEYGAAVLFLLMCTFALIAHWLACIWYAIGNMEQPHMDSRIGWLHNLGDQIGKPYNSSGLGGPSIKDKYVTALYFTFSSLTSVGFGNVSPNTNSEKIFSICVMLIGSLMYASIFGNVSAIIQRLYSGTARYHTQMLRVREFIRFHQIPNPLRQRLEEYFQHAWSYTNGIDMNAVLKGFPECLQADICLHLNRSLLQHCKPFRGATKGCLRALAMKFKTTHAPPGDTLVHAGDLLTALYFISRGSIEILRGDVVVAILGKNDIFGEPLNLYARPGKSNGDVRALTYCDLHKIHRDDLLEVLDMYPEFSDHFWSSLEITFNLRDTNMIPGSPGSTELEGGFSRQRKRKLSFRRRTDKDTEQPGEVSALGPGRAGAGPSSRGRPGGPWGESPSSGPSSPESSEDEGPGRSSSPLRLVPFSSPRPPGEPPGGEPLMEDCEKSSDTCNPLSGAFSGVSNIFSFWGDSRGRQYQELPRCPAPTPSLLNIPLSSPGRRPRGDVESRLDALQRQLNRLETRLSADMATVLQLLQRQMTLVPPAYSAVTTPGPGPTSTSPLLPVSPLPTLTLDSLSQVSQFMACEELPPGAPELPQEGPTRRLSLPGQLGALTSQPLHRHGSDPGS

| SMILES | hERG current change (%, negative = inhibition) at 1uM |
| --- | --- |
| COC(=O)[C@H](Cc1ccccc1)NC(=O)NCCC1=CCCCC1 | -0.221% |
| CC1CCN(C(=O)COc2ccc3ccccc3c2Br)CC1 | 9.56% |
| Cc1ccc(OCCn2nc3ccccc3n2)c(C)c1 | -0.51% |
| Nc1cc(=O)[nH]c(SCC(=O)NNC(=O)Cc2ccccc2)n1 | 19.4% |
| CCCCOc1ccc2c(c1)/C(=C(\C(Cl)=C(Cl)Cl)[N+](=O)[O-])N2 | 12.9% |
| CCOc1ccc(NC(=O)CNC(=O)c2cccs2)cc1 | 14.8% |
| CCCCC1CCC(C(=O)Nc2ccccc2N2CCOCC2)CC1 (stereo not drawn) | 5.53% |
| Cc1noc(C)c1CSCC(=O)Nc1cc(S(=O)(=O)N2CCCCC2)ccc1OC(C)C | 13.8% |
| CCN1CCN(CCCNC(=O)c2ccc(NC(=O)C3=CSCCO3)cc2)CC1 | 20.2% |
| COC(=O)c1cccc(NC(=O)CSc2nc(O)c(-c3ccccc3)c(=O)[nH]2)c1 | 8.64% |
| COc1cccc(NC(=O)CC2(CC(=O)O)CCCC2)c1 | -6.98% |
| COc1ccc(C(=O)c2c(C(F)(F)F)oc3c2C(=O)c2ccccc2C3=O)cc1OC | 8.78% |
| N#Cc1cnn2ccc(-c3cc(N4CCOCC4)ccc3[N+](=O)[O-])nc12 | 8.76% |
| O=C(Cc1coc2cc3c(cc12)CCC3)OCC(=O)N1CCCC1=O | 0.839% |
| CCOC(=O)[C@H]1[C@H]2COc3ccc(Cl)cc3[C@@H]2N2C(=O)c3cc(OC)ccc3NC(=O)[C@@]12C | 1.72% |
| Cc1ccc(Oc2ncccc2C(=O)NC2CCSC2=O)cc1 (stereo not drawn) | 9.34% |
| CCOc1ccc(-c2csc(C3COc4ccccc4O3)n2)cc1 (stereo not drawn) | 15% |
| COc1cccc(-n2c(=O)[nH]cc(C(=O)Nc3ccc4c(c3)OCCO4)c2=O)c1 | 9.27% |
| O=C1NC2(CCCCC2)N(C(=O)c2ccccc2)C2=C1CCCC2 | 15.3% |
| COC(=O)c1ccc(C(=O)NN)cc1 | 8.93% |
| CCc1nnc(NS(=O)(=O)c2ccc(N3C(=O)c4ccc(C(=O)O)cc4C3=O)cc2)s1 | 9.17% |
| CCN1C(=O)N[C@@H](CCc2ccccc2)C(C(=O)OC)=C1C | 17.6% |

| SMILES | hERG current change (%, negative = inhibition) at 1uM |
| --- | --- |
| Cc1nn(C)c(C)c1NC(=O)c1cc2nc(-c3ccco3)cc(C(F)(F)F)n2n1 | 13.7% |
| Cc1noc(C)c1C(=O)Nc1nccs1 | 10.8% |
| O=C(CSc1ncnc2c1oc1ccccc12)Nc1cccc(F)c1 | 0.367% |
| CCOC(=O)c1cnc(SCC(=O)N2CCN(C(=O)c3ccco3)CC2)nc1N | -7.07% |
| COc1ccc2[nH]c(=O)c(CN(CCO)S(=O)(=O)c3ccc4c(c3)OCCO4)cc2c1 | 10.1% |
| COc1ccc(C(C(=O)NC2CCCCC2)N(C(=O)c2ccco2)c2ccccc2C(C)=O)cc1OC (stereo not drawn) | 16.2% |
| CC(C)N(C1=N/C(=C\c2ccco2)C(=O)N1c1ccccc1)C(C)C | 14.4% |
| N#CCCn1cc(/C=N/O)c(-c2cccc([N+](=O)[O-])c2)n1 | 5.99% |
| CCNc1nc2c(c(=O)n(C)c(=O)n2C)n1CCCc1ccccc1 | 2.25% |
| [O-][n+]1c2c(nn1-c1ccccc1Cl)-c1nonc1CC2 | 8.7% |
| C/C(CC(=O)Nc1ccc(N(C)C)cc1)=N\NC(=O)c1ccc([N+](=O)[O-])cc1Cl | -0.102% |
| CC(/C=N/NC(=O)c1cc(C(C)(C)C)[nH]n1)=C\c1ccccc1 | 5.47% |
| CCNC(=S)N1CCC(C(N)=O)CC1 | 13.1% |
| O=C(N/N=C1\CCCc2ccccc21)c1ccccc1Cl | 8.09% |
| CCOCCCNC(=O)c1cccs1 | 16.3% |
| COC(=O)C1=CNC=C(C(=O)OC)C1c1ccc(C(=O)OC)cc1 | -1.03% |
| O=C(COC(=O)Cc1ccsc1)NCC1CCCCC1 | 2.04% |
| O=c1[nH][nH]c(-c2ccccc2O)c1C(C[N+](=O)[O-])c1cccc(Cl)c1 (stereo not drawn) | 12.6% |
| O=C(CSC(=S)N1CCCC1)Nc1ccc(Br)cc1Cl | 18.1% |
| OCC1(CCOc2ccccc2)CCN(Cc2ccccc2OC(F)F)CC1 | -54.4% |
| CC(c1cccs1)N(C)Cc1nc(CCc2ccccc2)no1 (stereo not drawn) | 4.83% |
| CN1CCN(S(=O)(=O)c2cccc(C(=O)Nc3sccc3C(N)=O)c2)CC1 | -48.2% |

| SMILES | hERG current change (%, negative = inhibition) at 1uM |
| --- | --- |
| O=C(C1=NN[C@@H]2C(=O)N(c3cccc(C(F)(F)F)c3)C(=O)[C@H]12)C(c1ccccc1)c1ccccc1 | 13.2% |
| CSc1ccc(/C=C(/NC(=O)c2ccco2)C(=O)N2CCCCCC2)cc1 | 8.23% |
| Cc1ccc(N2C(=O)NC(=O)/C(=C\c3cnc(-c4ccccc4)nc3)C2=O)cc1 | 17.9% |
| O=C(O)C1CCC(=O)N(C2CCCCC2)C1c1ccccc1 (stereo not drawn) | 6.56% |
| C=CCNC(=O)c1cccn1-c1ccsc1C(=O)OC | 1.79% |
| Cc1c2cnn(CC(=O)N3CCC4(CC3)OCCO4)c(=O)c2c(C)n1Cc1ccccc1Cl | 10.2% |
| CCCc1cc(C(=O)N2CCCC(Cc3ccccc3C)(C(=O)OCC)C2)no1 (stereo not drawn) | 1.33% |
| CC(C)=NOc1nc(N(C)C)nc(N(C)C)n1 | 7.45% |
| O=C(NCC1CC1)[C@]1(C(F)(F)F)C[C@H](CCC2CCCCC2)CCCO1 | 12.3% |
| COc1cc(/C=C(/C(=O)c2cccs2)c2nc3ccccc3[nH]2)cc(OC)c1O | -3.89% |
| CC(C)c1cc(CNC(=O)CC2C(=O)NCCN2CC2CCCCC2)on1 (stereo not drawn) | 11.9% |
| Cc1ccc(S(=O)(=O)N2CCN(CC(=O)N/N=C\c3ccccn3)CC2)cc1 | -4.83% |
| CCCCn1c(N)c(N(CCOC)C(=O)C(C)N2C(=O)c3ccccc3C2=O)c(=O)[nH]c1=O (stereo not drawn) | 19.1% |
| CCc1nc(-c2ccccc2)cc(=O)[nH]1 | 8.41% |
| COc1cc(CN(C)Cc2cc(=O)oc3cc(C)c(Cl)cc23)ccc1OC(F)F | 11.1% |
| O=C(NCCC1CCCCN1S(=O)(=O)c1ccccc1)C(=O)NCc1cccnc1 (stereo not drawn) | 8.76% |
| O=C(Cc1cccs1)N(c1ccc(F)cc1)C1(C(=O)NC2CCCCC2)CCCC1 | 2.72% |
| Cc1cccc(NC(=O)C2CC(=O)N(Cc3ccccc3)C2)n1 (stereo not drawn) | 14% |
| CCCn1c(SCC(=O)Nc2nc(-c3ccc(OC)cc3)cs2)nc2c1c(=O)n(C)c(=O)n2C | 11.2% |
| COc1ccc(C)cc1N/C(N)=N/c1nc(C)cc(C)n1 | -64.7% |
| Cc1cccc(N2CCN(C(=O)Cn3cccc3C(=O)c3ccccc3)CC2)c1C | 12.2% |
| COc1ccc(Nc2nnc(C)c3ccccc23)cc1C(N)=O | 16.1% |

| SMILES | hERG current change (%, negative = inhibition) at 1uM |
| --- | --- |
| CCc1noc2c1/C(=N\O)CC(c1ccccc1)C2 (stereo not drawn) | 4.04% |
| COc1ccc(N2CCOCC2)c(NC(=O)c2ccco2)c1 | -41.5% |
| COc1cc(CNCCCCO)ccc1OCc1ccccc1F.Cl | 2.85% |
| Clc1ccc(-c2nc3nc4ccccc4nc3n2Cc2ccco2)cc1 | -0.148% |
| Cc1cc(C)n2c(SCc3ccc(C#N)cc3)nnc2n1 | -0.405% |
| COc1cc(C2NC(=O)NC(C)=C2C(=O)OCC2CCCCC2)cc(Cl)c1O (stereo not drawn) | 9.92% |
| O=S1(=O)N=C(N2CCCc3ccccc32)c2ccccc21 | -6.76% |
| COCCCn1c(SCC(=O)Nc2ccc(C(=O)OC)cc2)nc2ccccc2c1=O | -22.3% |
| O=C(NCc1ccco1)N1c2ccccc2Sc2ccccc21 | 11.5% |
| C/C(=N/NC(=O)CSc1nc2ccccc2n1C)c1ccncc1 | 21.7% |
| CCOC(=O)C(NC(=O)c1ccc(OC)cc1)(N1CCOCC1)C(F)(F)F (stereo not drawn) | 6.95% |
| NC(=O)N/N=C(/CCCCCC/C(=N\NC(N)=O)c1ccccc1)c1ccccc1 | 2.74% |
| C=CCn1c(SCC(=O)NC(=O)Cc2ccccc2)nc2ccccc2c1=O | 11.5% |
| O=C(c1ccc(Cl)c(S(=O)(=O)N2CCOCC2)c1)N1CCN(Cc2ccccc2)CC1 | 2.61% |
| COc1ccc(C(Nc2ccccn2)c2c(NC(=O)c3ccco3)sc(C)c2C)cc1 (stereo not drawn) | 0.957% |
| O=C(CNC(=O)C(c1ccccc1)c1ccccc1)OCC(=O)c1cccs1 | 3.61% |
| O=C(c1ccc(F)cc1)C1CCN(C(=O)Nc2ccccc2Cl)CC1 | 7.41% |
| CC1CN(C2CCCCC2)c2nc3c(c(=O)n(C)c(=O)n3C)n2C1 (stereo not drawn) | 0.489% |
| Cc1cc(=O)oc2cc(OC(C)C(=O)NC3(C#N)CCCCC3)ccc12 (stereo not drawn) | 1.47% |
| N#Cc1ccc(NC(=O)CCNC(=O)c2ccco2)cc1Cl | 14.1% |
| Cc1cc([N+](=O)[O-])ccc1NCc1ccccc1[N+](=O)[O-].O=C(O)C(=O)O | 11.5% |
